Measured values from PubChem BioAssay AID1030 (National Center for Advancing Translational Sciences (NCATS), 2008).
The campaign covered roughly 220,000 compounds. About 16,000 (7.3%) were called active. Inconclusive results, whose numbers are uncertain, are shown with a selection of clear calls. Calls come from the whole dose curve; as a rule, active = well fitted inhibition curve with a large enough effect (not every such curve was filed as active); inconclusive = small, poorly fitted or top-dose-only effect, or another doubt; inactive = no such curve, though single readings can be large or run the other way. Potencies of inconclusive entries are left out as doubtful fits.

These compounds were tested against Aldehyde dehydrogenase 1A1 (Homo sapiens) (UniProt P00352) (assay: qHTS Assay for Inhibitors of Aldehyde Dehydrogenase 1 (ALDH1A1)). Settings: Purified ALDH1A1, NADH fluorescence, propionaldehyde substrate; series mostly up to 75.3 µM.
Potency is the fitted concentration of half-maximal effect; tags give direction and shape of the fitted curve.
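Throughout, for activity, negative = inhibition: plate controls were no enzyme wells and a reference inhibitor.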

Sequence of UniProt P00352 (P00352 whole entry, looked up): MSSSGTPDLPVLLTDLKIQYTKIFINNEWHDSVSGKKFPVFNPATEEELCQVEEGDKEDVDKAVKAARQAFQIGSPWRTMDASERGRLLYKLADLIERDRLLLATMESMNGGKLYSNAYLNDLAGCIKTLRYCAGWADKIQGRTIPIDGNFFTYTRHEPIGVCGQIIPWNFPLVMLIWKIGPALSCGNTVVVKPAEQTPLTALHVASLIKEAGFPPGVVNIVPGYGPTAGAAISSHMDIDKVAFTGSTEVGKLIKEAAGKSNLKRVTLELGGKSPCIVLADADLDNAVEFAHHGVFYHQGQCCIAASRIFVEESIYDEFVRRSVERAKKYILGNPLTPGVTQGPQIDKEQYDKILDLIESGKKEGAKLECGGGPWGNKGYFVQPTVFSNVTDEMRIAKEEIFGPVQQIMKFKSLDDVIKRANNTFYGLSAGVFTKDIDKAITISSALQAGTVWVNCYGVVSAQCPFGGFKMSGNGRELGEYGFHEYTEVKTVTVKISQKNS

Structure (SMILES) | Potency | activity, negative = inhibition
O=C(NCCCC(=O)N1CCOCC1)c1cccnc1 | inconclusive [inhibitor, single point] | –
CC1CCN(CCCNC(=O)c2coc3nc4ccccc4nc23)CC1 | inconclusive [inhibitor, partial curve] | –
CCOc1cc(/C=C2\SC(=S)N(NC(=O)c3cccnc3)C2=O)ccc1O | inconclusive [inhibitor, single point] | –
O=C(Nc1ccncc1)c1sc2ccccc2c1Cl | inactive | –
Cc1c(C(=O)N2CCOCC2)[nH]c2ccc(OCc3ccccc3)cc12 | inactive | –
Cc1ccc(-c2ccc(=O)n(CC(=O)Nc3ccc4c(c3)OCCO4)n2)cc1 | inconclusive [inhibitor, partial curve] | –
COc1ccc(OC)c2[nH]c(=O)c(CCNC(=O)c3cccs3)cc12 | inconclusive [inhibitor, single point] | –
COc1ccccc1/C=C/C(=O)OCC(=O)Nc1ccc(Cl)cn1 | inconclusive [inhibitor, partial curve] | –
CCOC(=O)c1[nH]c2ccc(OC)cc2c1NC(=O)CCN1CCSCC1 | inconclusive [inhibitor, single point] | –
O=C(COC(=O)c1ccc(Br)o1)Nc1ncc(Cl)cc1Cl | active: 18.9 µM | –
Nc1ccc2c(c1)OC1(CCCCC1)O2 | inconclusive [inhibitor, single point] | –
CCc1nnc(NC(=O)c2ccc(Cl)c(S(=O)(=O)N3CCc4ccccc4C3)c2)s1 | inactive | –
Cc1ccc(S(=O)(=O)Nc2ccccc2C(N)=O)cc1 | inconclusive [inhibitor, single point] | –
O=C1Cc2ccccc2C(c2ccccc2)N1 (configuration not stated) | inactive | –
CN(C)CCCNc1ncnc2scc(-c3ccccc3)c12 | active: 17.8 µM | –
Cc1cc2cc(CNC(=O)c3ccc(S(=O)(=O)N4CCCC4)cc3)ccc2n1C | active: 20 µM | –
O=C(NCc1ccccn1)C1COc2ccccc2O1 (configuration not stated) | inactive | –
Cc1nc(NS(=O)(=O)c2cccs2)c2c3c(sc2n1)CCC3 | inconclusive [inhibitor, partial curve] | –
Cn1cccc1/C=C1/SC(=O)N(CC(=O)N2CCCC2)C1=O | inactive | –
Cc1cc(=O)n2ccsc2n1 | inactive | –
O=c1[nH]c2cc3c(cc2cc1CN(Cc1nnnn1C1CCCC1)C1CCCC1)OCCO3 | inconclusive [inhibitor, partial curve] | –
O=C(O)CCCCCNC(=O)c1cccc(Br)c1 | inactive | –
N#Cc1c[nH]n2c(=O)c3c(nc12)CCC3 | inconclusive [inhibitor, single point] | –
CC(C)CC(c1nnnn1CCc1ccccc1)N1CCN(C(=O)c2ccco2)CC1 (configuration not stated) | inconclusive [inhibitor, single point] | –
CN(C(=O)CSc1nc2ccccc2n1CCc1ccccc1)C1CCS(=O)(=O)C1 (configuration not stated) | active: 22.4 µM | –
Cn1c(-c2cccc(Br)c2)n[nH]c1=O | inactive | –

Structure (SMILES) | Potency | activity, negative = inhibition
Cc1ccc(OCCNC(=O)c2cccc(Oc3ccc(C(F)(F)F)cc3[N+](=O)[O-])c2)cc1 | inconclusive [inhibitor, single point] | –
COc1ccccc1NC(=O)N(CCCN1CCOCC1)Cc1cc2cc3c(cc2[nH]c1=O)OCO3 | inconclusive [inhibitor, partial curve] | –
O=C1CC(Cc2ccccc2)C(=O)N1c1ncccn1 (configuration not stated) | inconclusive [inhibitor, single point] | –
O=C1COc2ccc(C(=O)NCc3ccco3)cc2N1 | inconclusive [inhibitor, single point] | –
CC(C)c1ccc(C2CC(=O)N3CN(Cc4ccco4)CSC3=C2C#N)cc1 (configuration not stated) | active: 14.1 µM | –
COC(=O)c1cccc(S(=O)(=O)N2CCC(c3nc4ccccc4o3)CC2)c1 | inactive | –
Cc1nc2ccccn2c1C(=O)N/N=C/c1ccc([N+](=O)[O-])o1 | inconclusive [inhibitor, single point] | –
NS(=O)(=O)c1ccc(CCNC2CC(=O)N(CCc3ccccc3)C2=O)cc1 (configuration not stated) | inconclusive [inhibitor, single point] | –
CC1(C)O[C@@H]1COc1c2ccoc2cc2oc(=O)ccc12 | inconclusive [inhibitor, single point] | –
CCOC(=O)c1ccc(N2C(=O)C3CC=CCC3C2=O)cc1 (configuration not stated) | inactive | –
Cn1c(=S)c2[nH]c(SCc3cccnc3)nc2n(C)c1=O | inconclusive [inhibitor, partial curve] | –
CCCCNC(=S)N1CCn2cccc2C1c1ccccc1 (configuration not stated) | inactive | –
CCSc1cc(C2C(C#N)=C(N)OC(C)=C2C(=O)OC)c(C)o1 (configuration not stated) | active: 20 µM | –
Cc1nc2ccc(NC(=O)N3CCCCC3)cc2nc1C | inconclusive [inhibitor, partial curve] | –
O=C1C2CCCN2C(=O)N1CCCCN1CCN(c2cccc(Cl)c2)CC1 (configuration not stated) | inconclusive [inhibitor, single point] | –
COc1ccc2c(c1)[nH]c(=O)c1sc3ccccc3c12 | inconclusive [inhibitor, partial curve] | –
CC(=O)OC1CC[C@]2(C)C(CC(OC(C)=O)[C@]3(C)C2CC[C@@]2(C)C(c4ccoc4)OC(=O)C4O[C@]432)C1(C)C (some centres not stated) | inactive | –
Cc1cc(N(CCO)CCO)nc(-n2nc(C)cc2C)n1 | active: 11.2 µM | –
C=CCn1c(=N)c(C(=O)OCC)cc2c(=O)n3cc(C)ccc3nc21 | inconclusive [inhibitor, full curve] | –
CCC(C)NC(=O)c1n[nH]c(=O)c2ccccc12 (configuration not stated) | inactive | –
Cn1cccc1C(=O)N1CCC2(CC1)CCN(C(c1ccccc1)c1ccccc1)CC2 | inactive | –
C=CCn1c(C)cc(-c2csc(NC)n2)c1C | inconclusive [inhibitor, single point] | –
NC(=O)c1ccccc1N/C=C/C(=O)c1ccc(Cl)cc1Cl | inconclusive [inhibitor, partial curve] | –
COC(=O)c1sccc1NC(=O)c1ccc(Br)o1 | inconclusive [inhibitor, single point] | –
CC(=O)N1CCN(c2ccc(NCc3ccc(C)s3)cc2)CC1 | active: 25.1 µM | –
CSCCC(NC(=O)c1cc(CC(C)C)oc1C)C(=O)O (configuration not stated) | inconclusive [inhibitor, single point] | –

Structure (SMILES) | Potency | activity, negative = inhibition
CCOC(=O)N1CCN(C(=O)COc2cc(C)c(Cl)c(C)c2)CC1 | inactive | –
CCc1cc2c(NCC3CCCO3)nc(C)nc2s1 (configuration not stated) | inactive | –
CC(=O)OC[C@@H]1O[C@@H](O/N=C2/C[C@@H](O)[C@@H](O)[C@@H]3[C@@H]4C(=O)N(C(C)(C)C)C(=O)[C@H]4CC[C@H]23)[C@H](OC(C)=O)[C@H](OC(C)=O)[C@@H]1OC(C)=O | – | inactive: 9.2% [at 13.5 µM]
O=C(C1CCCO1)N1CCN(Cc2c(O)ccc3ccccc23)CC1 (configuration not stated) | inconclusive [inhibitor, partial curve] | –
CCOC(=O)c1cccc(NC(=O)/C=C/c2ccc3c(c2)OCO3)c1 | inconclusive [inhibitor, single point] | –
CCOCCCNC(=O)C(NC(=O)Cc1c[nH]c2ccccc12)c1ccc(OC)cc1 (configuration not stated) | inactive | –
Cc1c(CN2CCCC(C)C2)c(O)n(CCO)c(=O)c1C#N (configuration not stated) | inactive | –
Cc1ccc(CN2CCN(Cc3ccc(-n4cccn4)cc3C)CC2CCO)cc1 (configuration not stated) | inactive | –
Cc1ccc(NC(=S)N2CCC(c3ccc(C)cc3)C2)cc1 (configuration not stated) | active: 28.2 µM | –
Cc1ccc(Cl)cc1NC(=O)CCN1C(=O)C2C3CCC(C3)C2C1=O (configuration not stated) | inconclusive [inhibitor, single point] | –
COc1ccc(C)cc1NC(=O)CCC(=O)Nc1ccc2nc(N3CCN(C)CC3)cc(C)c2c1 | inconclusive [inhibitor, single point] | –
N#C/C(=N/Nc1ccc(OC(F)(F)F)cc1)C(N)=S | inconclusive [inhibitor, single point] | –
Cc1ccc2nsnc2c1S(=O)(=O)NCCc1c(C)[nH]c2ccc(F)cc12 | inactive | –
Cc1[nH]nc(SCC(=O)N2CCC(C)CC2)c1[N+](=O)[O-] | active: 10 µM | –
CCn1c(SCC(=O)N=Nc2c(O)[nH]c3ccccc23)nnc1-c1ccc(C(C)(C)C)cc1 | inactive | –
COc1ccc(-c2nc(CS(=O)CC(=O)NCc3ccccn3)c(C)o2)cc1 (configuration not stated) | inconclusive [inhibitor, single point] | –
CCc1nc(NCCC(C)C)c(C#N)c2c1CCCC2 | inconclusive [inhibitor, single point] | –
O=C(Sc1ccccc1)c1cccc(Cn2cc(C(F)(F)F)ccc2=O)c1 | inactive | –
COc1ccc(CNc2nc(SCc3cc(=O)n4cc(Cl)ccc4n3)nc3ccccc23)cc1 | inactive | –
c1ccc(-c2nnc(CN3CCCc4ccccc43)o2)cc1 | active: 8.91 µM | –
O=C(NC1CC2CCC(C1)N2Cc1nnnn1Cc1ccco1)NC12CC3CC(CC(C3)C1)C2 (configuration not stated) | active: 7.94 µM | –
COc1ccc(Cc2nnc(SCC(=O)NCC3CCCO3)o2)cc1 (configuration not stated) | inconclusive [inhibitor, single point] | –
C=CCNC(=O)/C(=C\c1ccc(Br)cc1)NC(=O)c1ccccc1OC | inactive | –
COc1ccc(NC(=O)c2ccc(C)cc2Cl)c([N+](=O)[O-])c1 | inactive | –
COC(=O)CC[C@@H](C)[C@@H]1CC[C@@H]2[C@@H]3CC[C@H]4C[C@@H](O)CC[C@@]4(C)[C@@H]3CC[C@]21C | – | inactive: 4.41% [at 13.5 µM]
